PMC4336329 (PLoS ONE, 2015)
The campaign covered roughly 310,000 compounds. About 2,200 (0.71%) showed an effect of 50% or more. Effects have a minus sign here. The list shows a part of the results.

These compounds were tested against human ether-à-go-go-related gene (hERG) potassium channel (human, UniProt Q12809) (assay: primary screen, population patch clamp on CHO cells stably expressing hERG).
human ether-à-go-go-related gene (hERG) potassium channel, sequence (Q12809 whole entry, looked up): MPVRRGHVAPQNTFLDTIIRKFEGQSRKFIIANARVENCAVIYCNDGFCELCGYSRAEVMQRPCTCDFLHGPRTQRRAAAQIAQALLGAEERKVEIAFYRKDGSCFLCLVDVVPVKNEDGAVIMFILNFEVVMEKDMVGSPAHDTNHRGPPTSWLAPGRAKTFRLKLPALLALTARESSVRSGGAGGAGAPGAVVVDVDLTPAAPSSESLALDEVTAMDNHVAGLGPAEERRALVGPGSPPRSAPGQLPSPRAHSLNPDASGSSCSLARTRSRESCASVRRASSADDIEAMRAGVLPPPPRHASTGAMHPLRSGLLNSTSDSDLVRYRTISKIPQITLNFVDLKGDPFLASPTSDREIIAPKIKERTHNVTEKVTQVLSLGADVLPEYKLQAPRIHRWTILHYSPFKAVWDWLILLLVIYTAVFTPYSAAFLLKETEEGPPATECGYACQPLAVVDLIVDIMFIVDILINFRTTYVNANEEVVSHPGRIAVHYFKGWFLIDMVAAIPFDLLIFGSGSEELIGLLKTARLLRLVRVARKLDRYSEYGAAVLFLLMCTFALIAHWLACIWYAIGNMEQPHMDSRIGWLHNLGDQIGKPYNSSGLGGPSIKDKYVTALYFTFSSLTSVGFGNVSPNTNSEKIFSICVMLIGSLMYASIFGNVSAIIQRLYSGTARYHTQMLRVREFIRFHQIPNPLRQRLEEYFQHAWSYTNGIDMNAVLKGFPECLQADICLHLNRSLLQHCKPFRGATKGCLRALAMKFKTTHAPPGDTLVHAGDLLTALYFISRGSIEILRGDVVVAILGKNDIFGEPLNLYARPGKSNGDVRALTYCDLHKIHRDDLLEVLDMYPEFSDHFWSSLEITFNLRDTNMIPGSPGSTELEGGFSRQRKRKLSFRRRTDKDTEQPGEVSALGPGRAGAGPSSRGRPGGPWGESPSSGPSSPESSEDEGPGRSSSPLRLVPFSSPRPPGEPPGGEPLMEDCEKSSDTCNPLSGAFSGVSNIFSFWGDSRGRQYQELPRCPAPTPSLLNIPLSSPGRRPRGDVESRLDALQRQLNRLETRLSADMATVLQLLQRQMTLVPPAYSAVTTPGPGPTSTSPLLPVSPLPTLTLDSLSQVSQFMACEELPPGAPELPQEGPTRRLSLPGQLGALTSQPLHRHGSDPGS

Structure (SMILES) | hERG current change (%, negative = inhibition) at 1uM [%]
COC(=O)C1(CC2CC(c3ccncc3)=NO2)CCN(C(=O)OC(C)(C)C)CC1 (stereo not shown) | 10.2
COc1ccc(OC)c(-n2c(=S)[nH]c3cc(C(=O)N4CCN(c5ccccc5)CC4)ccc3c2=O)c1 | 8.17
COc1ccc(CC(=O)OCC(=O)NC(=O)NC2CCCC2)cc1 | 9.71
O=C(NCCS(=O)(=O)N1CCN(c2ccccc2F)CC1)c1ccc(Br)o1 | -11.4
CC(=O)Oc1ccc(OC(C)=O)c2c1CC(C)=C(C)C2 | 15.3
N#CC1(C#N)C(C(N)=O)C1c1ccccc1 (stereo not shown) | 13.7
COc1cc(NC(=S)N2CCCC(CO)C2)cc(OC)c1 (stereo not shown) | 22.3
CCOC(=O)[C@H]1[C@H]2COc3ccc(Br)cc3[C@@H]2N2C(=O)CN(Cc3ccccc3)C(=O)[C@@]12C | 12.4
O=C(N/N=C/c1cccs1)c1ccc2nc[nH]c2c1 | 3.39
COc1ccc(-c2nc(CSCC(=O)NC3CC3)c(C)o2)cc1OC | 26.7
COc1ccc2[nH]c(=O)c(C(c3nnnn3C3CCCC3)N3CCN(Cc4ccc5c(c4)OCO5)CC3)cc2c1 (stereo not shown) | -2.19
O=C(O)CSc1nnc(-c2ccc(Cl)cc2Cl)n1-c1ccc(Cl)cc1 | 9.5
Cn1cc(/C=N/n2cnc3sc4c(c3c2=O)CCCC4)c2ccccc21 | -0.123
Cc1ccc(C(=O)N[C@H](C(=O)NC2CCCCCCC2)C(C)C)cc1 | 10.8
Cc1ccc2c(CC(=O)Nc3cccc(S(=O)(=O)N4CCOCC4)c3)coc2c1 | 3.93
Cc1ccc(NC(=S)N/N=C/c2cccn2Cc2ccccc2F)cc1 | -1.36
O=C(CCc1ccccc1)Nc1ncn[nH]1 | -3.02
CCOc1ccc(C2Nc3ccccc3C(CC)(CC)O2)cc1 (stereo not shown) | 11.4
Cc1cccc(C)c1NC(=S)NC(C)CCc1ccccc1 (stereo not shown) | 6.09
Cc1oc2cc([N+](=O)[O-])c(O)c([N+](=O)[O-])c2c1C(=O)c1ccc(Cl)cc1 | 7.93
Cn1c(SCC(=O)c2ccccc2F)nnc1C1CC1 | 10.6
COc1ccc(NC(=S)NC(=O)c2cncc(Br)c2)c(OC)c1 | 8.18
Cc1cc(N2CCN(C)CC2)nc2ccc(NC(=S)N3CCN(c4ccc(Cl)cc4)CC3)cc12 | 7.81

Structure (SMILES) | hERG current change (%, negative = inhibition) at 1uM [%]
CC1CCN(CC(O)CN2c3ccccc3Sc3ccccc32)CC1 (stereo not shown) | 7.3
COc1ccc(NC(=O)COC(=O)c2ccc(OC)c(S(=O)(=O)N3CCCC3)c2)cc1OC | 6.49
Cc1ccc(/C=C2\SC(=S)N(CCC(=O)NNC(=O)c3cccnc3)C2=O)cc1 | 4.57
CCN(Cc1ccccc1)c1ccc(/C=N/NS(=O)(=O)c2ccc(C)c([N+](=O)[O-])c2)cc1 | 11.7
CCN(C(=O)COC(=O)/C=C/c1ccc(S(=O)(=O)N2CCc3ccccc32)cc1)C1CCS(=O)(=O)C1 (stereo not shown) | 1.02
CO/N=C(\C(=O)O)c1csc(NN=C(C)C)n1 | 14.1
CCOC(=O)NC(=O)/C(C#N)=C\NNc1ncc(C(F)(F)F)cc1Cl | 7.79
Cc1ccccc1CNC(=O)CCCC(=O)n1nc(C)c2ccccc21 | 8.9
CCN1CCN(c2ncnc3c2cnn3-c2ccccc2)CC1 | 5.44
O=C(NCc1ccccc1)C1CCCC1 | 16.7
Cc1cnc(NC(=O)c2ccc(-c3nc4ccccc4s3)o2)s1 | 12.7
Cc1cccc(C(=O)NCCCN2CCCC2=O)c1 | 11.1
CC(C)CCC(C)N=Cc1c(O)n(Cc2ccccc2)c(=O)c2ccccc12 (stereo not shown) | 12.8
Cc1cccnc1NC1=NCC(C)S1 (stereo not shown) | 13
CC(=O)Nc1ccc(C23CC4CC(CC(C4)C2)C3)cc1 | 17
COc1ccc(CN2C(=O)NC(=O)/C(=C/c3ccc(OC)c(OC)c3OC)C2=O)cc1 | 3.43
COc1ncnc2sc3c(c12)CCCC3 | -6.51
O=C(N/N=C/c1cn(Cc2cccc(F)c2)c2ccccc12)c1cc(O)cc(O)c1 | 10.6
CC(C)C(=O)Nc1c2c(nn1-c1ccc(F)cc1)CSC2 | 9.44
CC(=O)Nc1ccc(NC(=O)c2nccnc2C(=O)O)cn1 | 7.97
Cc1ccccc1OCCCN1CCCC1 | 7.41
Cc1ccc2cccnc2c1N | 13.8
O=C(NC(Nc1ccc(F)cc1)(C(F)(F)F)C(F)(F)F)c1cccnc1 | 13.6

Structure (SMILES) | hERG current change (%, negative = inhibition) at 1uM [%]
COCCNC(=O)C1CC(=O)N(C2CCCC2)C1 (stereo not shown) | 9.53
CC1CN/C(=C\C(=O)c2ccccc2)C(=O)N1 (stereo not shown) | 13
CCOc1cc(C(=S)N2CCOCC2)ccc1OS(=O)(=O)c1ccc(OC)cc1 | 7.25
Cc1ccccc1Nc1cc(C(=O)NCC2CCCO2)c2ccccc2n1 (stereo not shown) | -0.407
CN1[C@@H]2CCC[C@H]1CC(NC(=O)c1nn(C)c3ccccc13)C2.Cl (stereo partly shown) | 3.38
COc1ccc(C(=O)Oc2cccc(/C=N/NC(N)=S)c2)cc1 | 8.26
COC(=O)c1cn(NC(=O)c2cc(OC)cc(OC)c2)c(=O)c2ccccc12 | 14.1
COc1ccc(C(=O)NCCc2c[nH]c3ccccc23)cc1 | 13.5
COc1ccc(N(Cc2cc3cc(OC)ccc3[nH]c2=O)S(=O)(=O)c2ccc(NC(C)=O)cc2)cc1 | 9.09
COc1ccccc1-c1noc(CSc2nc(C)cc(=O)[nH]2)n1 | 19.4
CNc1nc(Sc2ccccc2)cc(C(F)(F)F)n1 | 18.9
CCN(CC(=O)NC1CCS(=O)(=O)C1)S(=O)(=O)c1cccc(C(C)=O)c1 (stereo not shown) | 14.6
Cc1onc(-c2ccccc2Cl)c1C(=O)NCCn1c(C)cc2ccccc21 | 12
CCN(CC)C(=S)NC(=O)Cc1ccccc1 | 15.8
CNC(=O)c1cc2c(ccc3ccccc32)o1 | -2.25
CCN(CC)c1ccc(CN(C(=O)c2ccco2)C2CCS(=O)(=O)C2)cc1 (stereo not shown) | 0.108
COCCC(=O)N1CCC(Oc2ccc(C(=O)N3CCCCC3CCO)cc2)CC1 (stereo not shown) | 5.22
CCS(=O)(=O)N1CCC(c2nc3ccccc3[nH]2)CC1 | 14.8
COc1ccccc1NS(=O)(=O)c1cc(NC(=O)c2cc[n+]([O-])cc2)ccc1N1CCCC1 | 8.04
C[C@H](CS)C(=O)N1CCC[C@H]1C(=O)O | -2.52
Cc1ccsc1C(=O)OCc1csc(-c2ccccc2)n1 | -7.82
CS(=O)(=O)Nc1ccccc1C(=O)NCC1(N2CCCCC2)CCCCC1 | 8.57
Cc1ccc(-c2nc3sc4c(N)ncnc4c3c3c2CCCC3)cc1 | 3.8

Structure (SMILES) | hERG current change (%, negative = inhibition) at 1uM [%]
CCCOc1ccc(C(=O)O)cc1 | 3.26
CC1(CCc2ccccc2)NC(=S)N(c2ccccc2)N1 (stereo not shown) | 12.9
CCN(CC)CCCC1(CN)OCCc2ccccc21.Cl (stereo not shown) | 1.2
CCCOc1ccc(-c2cnc(N)s2)cc1 | -0.0697
COc1ccc(/C(N)=N/OC(=O)Cc2ccc(OC)c(OC)c2)cc1 | 12.3
Cc1ccc(N(CC(=O)NC2CCCCC2)C(=O)CNC(=O)c2ccco2)c(C)c1 | 8.82
COc1ccc2[nH]c3c(=O)n(CCc4ccccc4)cnc3c2c1 | 2.73
CCOC(=O)c1nnc(-c2cccs2)nc1NC(C)C | -13.9
O=C(Nc1cccnc1)c1ccc(F)c(S(=O)(=O)N2CCOCC2)c1 | 9.9
CCOc1ccccc1CNS(=O)(=O)c1ccc2c(c1)C(C)(C)C(=O)N2C | 13.5
CCc1nn(CCCC(=O)N2CCN(c3cccc(C)c3C)CC2)c(=O)c2cc3occc3n12 | 7.23
COc1cccc(Nc2nc(CN3CCOCC3)nc3sc4c(c23)CCCC4)c1 | 6.04
CCSc1nc(-c2ccc(OC)cc2)cc(-c2ccc(OC)cc2)c1C#N | 12.8
COc1cc(CC(=O)OCc2ccccc2F)cc(OC)c1OC | 5.53
CC(/C=N/n1c(COc2ccccc2)n[nH]c1=S)=C\c1ccco1 | 10.5
Cc1cccc2nc(-c3ccccc3)nc(N3CCC(O)(c4ccc(Cl)cc4)CC3)c12 | 12.6
O=C(NCCO)c1c(O)c2cccc3c2n(c1=O)CC3 | 10.1
Cc1snc(S(=O)(=O)Cc2ccccc2Cl)c1C#N | -1.58
O=c1cc(CN2CCN(c3cccc(Cl)c3)CC2)c2cc(O)c(-c3ccccc3)cc2o1 | 18.4
C(=N\Nc1ccccn1)/c1ccc(N2CCOCC2)cc1 | 10.8
Cc1ccc(C)c(NC(=O)CN(C)C(=O)CN2C(=O)C3CCCCC3C2=O)c1 (stereo not shown) | 14.2
Cc1ccc(NC(=O)COC(=O)CCc2ccc(S(=O)(=O)N3CCOCC3)cc2)cc1C | 7.57
